Data on 44 sequences can be found in the supplement of paper PMC11417369.

The list shows a part of the results.

For this test, the system named is PF3D7_0420300 AP2 domain 1 (GST-tagged). The test is described as follows: gcPBM binding intensity (ln(normalized median fluorescence intensity)); higher = stronger DNA binding. In short, it runs like this: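 Plasmodium falciparum DNA-binding domains carrying a GST tag were expressed in E. coli and applied for 1 h, at about 25 μg on average, to an Agilent 4 × 180k array. The array held primer-extended double-stranded 36-bp intergenic genomic probes together with negative controls, and binding took place in 1× PBS with 1% milk, 0.2 mg/ml BSA, 0.5% salmon testes DNA and 0.03% Triton X-100. An Alexa488 anti-GST antibody detected bound protein, and the array was scanned at 488 nm. Binding intensity is taken as the highest Masliner-normalised natural-log median intensity across replicate spots of either probe orientation.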
For “TACCTTATGTTATATACACACATATAACATAATATA [CACACA_site6741]”, the “gcPBM binding intensity (ln)” value was found to be 9.5.
For “ATATATATATATAGTAGTACTCTCTCTGTATATATA [XGTACX_site3754]”, the “gcPBM binding intensity (ln)” value was determined as 9.08.
For “ATTTAGAAAAATAAAACACACATATATCTGTAAATA [CACACA_site6119]”, the “gcPBM binding intensity (ln)” value stood at 9.46.
As for “TGTTACATAAAATGCACACTTTCAAATATGCTAATA [CACACA_site2925]”, the figure is 9.05.
The result for “TATAAGCTAAGTTGTTGTACAAAAAGGAAAAGTATA [XGTACX_site3741]” reads 9.49; that for “AAAAAAATCTCCAGTGTGCACAATCACATAATATAT [GTGCAC_site9833]”, 9.67; that for “GAGATAAAATAAAACACACACATATATATATAGAAT [CACACA_site2197]”, 10.1.
As for “TTTTCTTTTAAGTTTGTTTTACACTTTTTATTTTGA [CACACA_negctrl_site1581]”, the figure is 9.36; as for “TATACGTATTTTATATGTACACATATACATATTTAT [XGTACX_site5301]”, 9.29; as for “AATATATGGTTTCATGATATTAAATTCAATTTAATG [GTGCAC_negctrl_site370]”, 8.99.
As to “AAATATAAATATACTCGTACATATATATATATATAT [XGTACX_site6940]”, the “gcPBM binding intensity (ln)” value is 9.22.
As for “ACTATATTTCATAACAGTACATATTCCTGAAACATC [XGTACX_site4924]”, the figure is 9.19; as for “ACAATATAAAAAAATTGTACATAATATATAATATTA [XGTACX_site1040]”, 9.1; as for “CATGCTTATATGTGCACACACAAAAGAAAAGAAAAA [CACACA_site1655]”, 9.62.
As for “GATATATTACTTAAAATACACACCATGGAAAAGTTT [CACACA_site2606]”, the figure is 9.4; as for “GAATATGTTAACATTTGTACATAAAATTTTTTACAA [XGTACX_site2444]”, 8.93; as for “ATGTTTAAATTTTTCAGTACATATATTCTAGTAAAA [XGTACX_site1010]”, 9.11.
As for “AATATATATATATATCCACACACATACATATATTAA [CACACA_site7907]”, the figure is 9.7; as for “ATGGTTTTTATTTTATGTACTTACTAAAATGAATAA [XGTACX_site4317]”, 9.23.
As to “TACATAAAAATATATGCATGTTCTTATTTAATAAAA [TGCATGCA_site743]”, the “gcPBM binding intensity (ln)” value turned out to be 8.84.
As for “AAAATATTATTACAGAAACAAAAAGAAAAATATATA [GTGCAC_negctrl_site285]”, the figure is 9.44; as for “ATATGTAAAATATGGTGTACAATCAAATAAAAAAAA [XGTACX_site6270]”, 9.49; as for “ATTAATATATTTACCACACACCCATTTCGATTTTAT [CACACA_site3605]”, 9.73.
Consider “TATTTTATTTTTTGTTGTACATATATATTATATATA [XGTACX_site4513]”, for which the “gcPBM binding intensity (ln)” value came out at 9.46.
With “CATATAAAAGGACACACACACACATATATATATATA [CACACA_site4674]”, the “gcPBM binding intensity (ln)” value stood at 10.
The result for “TTTATTTTATCATTTGCACACGCACGCCCACATAAA [CACACA_site353]” reads 9.4; that for “CAAAATATATTGAATTGTACATAAAAATAAAAATTA [XGTACX_site4193]”, 9.19; that for “AGCAGTCAGCAGGACAGTACACAGTAGCCAGTAACT [XGTACX_site1999]”, 9.11.
As for “ATAAAATAAATATAACCACACACGAAAGAGAGAGAA [CACACA_site9075]”, the figure is 10.1.
Consider “TTTTTAGGAAAGGCGGCACACATTTATATATTTATT [CACACA_site3672]”, for which the “gcPBM binding intensity (ln)” value was 9.38.
The result for “TTCCAACCAATACAAACATGCATTTGAAAAAATGTA [TGCATGCA_site119]” reads 9.1; that for TTCGCCCTAAATAGAGTGCATTATATATATTAATAT, 9.27.
On to “ATACATTCTTATTACTGTACAGGGTTAATTATTTGT [XGTACX_site948]”, for which the “gcPBM binding intensity (ln)” value is 9.47.
The result for “TGGAGATAAAATAAAACACACACATATATATATATA [CACACA_site8683]” reads 9.72; that for “ATTATTTTATTTATTGGTACGTAATTGTAGATTTCT [XGTACX_site3697]”, 9.27.
The result for “GCAAAAACAAACGTCACACATACAAAGGCCGTGTAA [CACACA_site6043]” reads 9.33; that for “TCCACACAATTTATAACATGCAAAAAGGCAATAATA [TGCATGCA_site773]”, 9.13.
The result for “TAGGTATATAAATAATGTACATATAAACTATATAGA [XGTACX_site2597]” reads 9.44; that for “ATGTTGAGTATATATACACACATACAGATATATATA [CACACA_site4967]”, 9.52; that for “ATTTTTTTGGAATTCACACACAAAAAAAAAAATAAA [CACACA_site2081]”, 9.39.
Turning to “AATTAGACATAATATACACACATATATTATATATAT [CACACA_site2691]”, the “gcPBM binding intensity (ln)” value amounted to 9.54.
The result for TTCAAAAGATATATCGTGCACATATATATGATGAAA reads 9.21; that for “CACATTTAGAAATAGTTTTATTTTGTATATTCTATT [CACACA_negctrl_site1382]”, 9.29.
In the case of “TATACATTTATGTACACACACATATCTGTATATTTA [CACACA_site5617]”, the “gcPBM binding intensity (ln)” value is 9.64.
